The list shows a part of the results. Repeats are few or missing, and single values can be far off.
Legend:
Assay in all cases: cell count relative to DMSO control; melanoma cells; higher = more viable cells
Conditions in all cases: library dose: low library concentration; 72 h
MZ2-MEL = test system: MZ2-MEL
MeWo = test system: MeWo
RPMI7951 = test system: RPMI7951
RVH-421 = test system: RVH-421
SkMel28 = test system: SkMel28
SkMel2 = test system: SkMel2
SkMel30 = test system: SkMel30
SkMel5 = test system: SkMel5
UACC257 = test system: UACC257
UACC62 = test system: UACC62
WM115 = test system: WM115
WM1716 = test system: WM1716
WM1745 = test system: WM1745
WM3526 = test system: WM3526
WM3619 = test system: WM3619
WM451Lu = test system: WM451Lu
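Also: cell number obtained by counting DAPI-stained nuclei in high-throughput microscope images with image analysis software, screen run in 1,536-well plates.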

Row | SMILES | cell count (MZ2-MEL) | cell count (MeWo) | cell count (RPMI7951) | cell count (RVH-421) | cell count (SkMel28) | cell count (SkMel2) | cell count (SkMel30) | cell count (SkMel5) | cell count (UACC257) | cell count (UACC62) | cell count (WM115) | cell count (WM1716) | cell count (WM1745) | cell count (WM3526) | cell count (WM3619) | cell count (WM451Lu)
1 | CC[C@]1(O)C[C@H]2CN(CCc3c([nH]c4ccccc34)[C@@](C(=O)OC)(c3cc4c(cc3OC)N(C=O)[C@H]3[C@@](O)(C(=O)OC)[C@H](OC(C)=O)[C@]5(CC)C=CCN6CC[C@]43[C@@H]65)C2)C1 [vincristine] + Cn1cc(/C=C2\C(=O)Nc3cccnc32)c2ccccc21 [GW441756] (first compound 0.0001 µM, partner dose 0.4 µM) | 101% | 71.1% | 53.8% | 106% | 80% | 93.3% | 53.3% | 73.9% | 72.8% | 70.4% | 56.6% | 56.5% | 89.5% | 69.3% | 93.9% | 54.4%
2 | CC[C@]1(O)C[C@H]2CN(CCc3c([nH]c4ccccc34)[C@@](C(=O)OC)(c3cc4c(cc3OC)N(C=O)[C@H]3[C@@](O)(C(=O)OC)[C@H](OC(C)=O)[C@]5(CC)C=CCN6CC[C@]43[C@@H]65)C2)C1 [vincristine] + O=C(O)[C@@H]1[O][Sb](=[O])([O][Sb]2(=[O])[O][C@H]([C@H](O)CO)[C@H](O)[C@H](C(=O)O)[O]2)[O][C@H]([C@H](O)CO)[C@@H]1O [stibogluconate] (first compound 0.0001 µM, partner dose 2 µM) | 106% | 114% | 117% | 111% | 96.7% | 107% | 89.3% |  |  | 89.2% | 88.4% | 67.8% | 120% | 96.5% | 95.6% | 67.1%
3 | Cc1cc(Nc2cc(N3CCN(C)CC3)nc(Sc3ccc(NC(=O)C4CC4)cc3)n2)n[nH]1 [Tozasertib] + Cc1ccc(NC(=O)c2cccc(N(C)C)c2)cc1NC(=O)c1ccc(O)cc1 [ZM336372] (first compound 0.006 µM, partner dose 2 µM) | 84.2% | 93.2% | 89.5% | 106% | 101% | 105% | 102% | 96.2% | 88.5% | 92.2% | 96.9% | 93.6% | 78.9% | 101% | 97% | 117%
4 | Cc1cc(Nc2cc(N3CCN(C)CC3)nc(Sc3ccc(NC(=O)C4CC4)cc3)n2)n[nH]1 [Tozasertib] + Oc1nc(-c2ccc(C(F)(F)F)cc2)nc2c1CSCC2 [XAV939] (first compound 0.006 µM, partner dose 2 µM) | 98.7% | 93% | 88.9% | 99.6% | 89.7% | 102% | 98.9% | 76.2% | 70.5% | 83.4% | 83.3% | 60.8% | 72.5% | 92.9% | 83.5% | 76.1%
5 | N#CC[C@H](C1CCCC1)n1cc(-c2ncnc3[nH]ccc23)cn1 [ruxolitinib] + O=C(CCCCCCC(=O)Nc1ccccc1)NO [vorinostat] (first compound 1 µM, partner dose 0.08 µM) | 107% | 97.4% | 89.5% | 103% | 92.6% | 100% | 135% | 98.6% | 88% |  | 107% | 125% | 109% | 106% | 93.1% | 95.5%
6 | N#CC[C@H](C1CCCC1)n1cc(-c2ncnc3[nH]ccc23)cn1 [ruxolitinib] + COc1ccc(-c2ccc3c(N4CCOCC4)nc(N4C[C@@H](C)O[C@@H](C)C4)nc3n2)cc1CO [KU0063794] (first compound 1 µM, partner dose 0.02 µM) | 95.9% | 93.2% | 83.7% | 96.5% | 107% | 97.7% | 91% | 104% | 99.5% |  | 109% | 91.1% | 87.7% | 103% | 82.1% | 96.3%
7 | N#CC[C@H](C1CCCC1)n1cc(-c2ncnc3[nH]ccc23)cn1 [ruxolitinib] + O=C(Nc1cccc(Cl)c1)Nc1ncc(CCNc2ncnc3ccsc23)s1 [SNS314] (first compound 1 µM, partner dose 0.0008 µM) | 107% | 83.9% | 94.1% | 92.9% | 117% | 102% | 117% | 107% | 82.5% | 112% | 84.3% |  | 111% | 106% | 122% | 108%
8 | Cc1cc(Nc2cc(N3CCN(C)CC3)nc(Sc3ccc(NC(=O)C4CC4)cc3)n2)n[nH]1 [Tozasertib] + O=C(Nc1cc(C(F)(F)F)cc(C(F)(F)F)c1)c1cc(Cl)ccc1O [IMD0354] (first compound 0.006 µM, partner dose 0.016 µM) | 96.2% | 90.1% | 104% | 77.1% | 92.5% | 102% | 84.6% |  |  | 102% | 104% | 87.3% | 92.9% | 78% | 82.6% | 92.4%
9 | Cc1cc(Nc2cc(N3CCN(C)CC3)nc(Sc3ccc(NC(=O)C4CC4)cc3)n2)n[nH]1 [Tozasertib] + CO[C@@H]1[C@H](N(C)C(=O)c2ccccc2)C[C@H]2O[C@]1(C)n1c3ccccc3c3c4c(c5c6ccccc6n2c5c31)C(=O)NC4 [Midostaurin] (first compound 0.006 µM, partner dose 0.08 µM) | 93.3% | 75.8% | 79.5% | 70.7% | 109% | 94.2% | 108% | 83.1% | 40.2% | 90.6% | 75.4% | 60.3% | 72.8% | 101% | 85.7% | 96.3%
10 | N#CC[C@H](C1CCCC1)n1cc(-c2ncnc3[nH]ccc23)cn1 [ruxolitinib] + O=C1NC(=O)/C(=C/c2ccc(-c3ccc(F)cc3O)o2)S1 [AS252424] (first compound 1 µM, partner dose 1 µM) | 99.7% | 93.6% | 94.7% | 88% | 106% | 93.1% | 125% | 89.9% | 88.1% | 112% | 114% | 104% | 96.7% | 113% | 98.8% | 111%
11 | CC[C@]1(O)C[C@H]2CN(CCc3c([nH]c4ccccc34)[C@@](C(=O)OC)(c3cc4c(cc3OC)N(C=O)[C@H]3[C@@](O)(C(=O)OC)[C@H](OC(C)=O)[C@]5(CC)C=CCN6CC[C@]43[C@@H]65)C2)C1 [vincristine] + O=C(O)c1ccc(-c2c[nH]c3ncc(-c4ccccc4)cc23)cc1C1CCCC1 [GSK650394] (first compound 0.0001 µM, partner dose 0.16 µM) | 94% | 68.2% | 58.9% | 91.5% | 63.3% | 84.8% | 43.6% | 80.9% | 36% | 52.2% | 41% | 37.2% | 84.9% | 48% | 60% | 54.7%
12 | Cc1cc(Nc2cc(N3CCN(C)CC3)nc(Sc3ccc(NC(=O)C4CC4)cc3)n2)n[nH]1 [Tozasertib] + CCCCCCCCCCCC1=C(O)C(=O)C=C(O)C1=O [Embelin] (first compound 0.006 µM, partner dose 1.2 µM) | 99.1% | 106% | 98.9% | 97.8% | 93.4% | 96.2% | 114% | 96.4% | 74.1% | 90.6% | 84% | 99% | 99.6% | 113% | 109% | 102%
13 | N#CC[C@H](C1CCCC1)n1cc(-c2ncnc3[nH]ccc23)cn1 [ruxolitinib] + O=c1cc(-c2cccc3c2Sc2ccccc2S3)oc(N2CCOCC2)c1 [KU55933] (first compound 1 µM, partner dose 1 µM) | 111% | 86.9% | 107% | 124% | 98.1% | 108% | 84.7% | 93.7% | 99.1% | 107% | 102% |  | 97.6% | 116% | 103% | 
14 | Cc1cc(Nc2cc(N3CCN(C)CC3)nc(Sc3ccc(NC(=O)C4CC4)cc3)n2)n[nH]1 [Tozasertib] + N#Cc1c(O)c2c(-c3ccc(-c4ccccc4O)cc3)csc2[nH]c1=O [A769662] (first compound 0.006 µM, partner dose 2 µM) | 109% | 84.9% | 92.1% | 100% | 93.6% | 100% | 117% | 97.7% | 81% | 96.8% | 100% | 79.7% | 74.4% | 96.2% | 90.6% | 106%
15 | N#CC[C@H](C1CCCC1)n1cc(-c2ncnc3[nH]ccc23)cn1 [ruxolitinib] + COc1cc2ncnc(Nc3ccc(Oc4ccccc4)cc3)c2cc1OC [SrcI1] (first compound 1 µM, partner dose 2 µM) | 92% | 95% | 94.3% | 105% | 96.3% | 107% | 86.4% | 124% | 103% | 109% |  | 94.5% | 81.9% | 90.6% | 103% | 114%
16 | CC[C@]1(O)C[C@H]2CN(CCc3c([nH]c4ccccc34)[C@@](C(=O)OC)(c3cc4c(cc3OC)N(C=O)[C@H]3[C@@](O)(C(=O)OC)[C@H](OC(C)=O)[C@]5(CC)C=CCN6CC[C@]43[C@@H]65)C2)C1 [vincristine] + Cc1cc([N+](=O)[O-])ccc1NS(=O)(=O)c1cc(Cl)ccc1Cl [FH535] (first compound 0.0001 µM, partner dose 1 µM) | 54.1% | 68.2% | 36.2% | 77.4% | 72.8% | 62.8% | 44% | 83.6% | 49.2% | 44.1% | 37.2% | 33.3% | 64% | 48.4% | 43.4% | 50.3%
17 | Cc1cc(Nc2cc(N3CCN(C)CC3)nc(Sc3ccc(NC(=O)C4CC4)cc3)n2)n[nH]1 [Tozasertib] + Nc1nc(F)nc2c1ncn2[C@@H]1O[C@H](CO)[C@@H](O)[C@@H]1O [fludarabine] (first compound 0.006 µM, partner dose 0.2 µM) | 97.9% | 29.1% | 91.7% | 78.8% | 81.3% | 5.45% | 17.5% |  |  | 63.8% | 75% | 87.9% | 78.3% | 29.8% | 94.3% | 61.2%
18 | N#CC[C@H](C1CCCC1)n1cc(-c2ncnc3[nH]ccc23)cn1 [ruxolitinib] + O=C(/C=C/c1cccnc1)NCCCCC1CCN(C(=O)c2ccccc2)CC1 [FK866] (first compound 1 µM, partner dose 0.01 µM) | 51% | 89.3% | 93.3% | 70.8% | 107% | 62% | 113% |  |  | 125% | 103% | 100% | 104% | 124% | 91.7% | 112%
